The whole screen tested about 150,000 compounds, of which about 540 (0.36%) showed an effect of 50% or more. This is one part of the list.
system: Plasmodium falciparum; assay: Primary screen in NF54 nanoGlo assay, in single point, at 2uM, 72h; a lower Z score goes with more inhibition; assay type: functional, Erythrocyte; settings: timepoint 72 hour

| Compound | % Inhibition | Z score |
| --- | --- | --- |
| CC/C=C\CCCN1CCC[C@](CC)(C(N)=O)C1 | -5% | 0.62 |
| COc1cccc(-c2cc(C(=O)N3CCC[C@@]4(C3)OC(=O)c3ccccc34)n(C)n2)c1 | -7% | 1.29 |
| O=C(CCC(F)(F)F)N[C@H]1CCCN(C2CCCCCC2)C1 | -19% | 2.07 |
| CCNC(=O)[C@H]1CCCN(c2nccn(C3CC3)c2=O)C1 | -16% | 2 |
| CC(C)N(CC1CCC1)C(=O)NCCn1cccn1 | -4% | 0.48 |
| Cc1cc2c(N3CCC[C@H](Cn4ccnc4C)C3)ncnc2s1 | -6% | 0.82 |
| O=C1C[C@]2(C(=O)Nc3ccccc32)c2cnn(Cc3ccc(Cl)cc3)c2N1 | -1% | 0.16 |
| CCn1cncc1CNC(=O)c1cccc(-c2cnn(CCC(N)=O)c2)c1 | -15% | 1.85 |
| CC(C)N1CCN(C(=O)[C@@]23CCCC[C@H]2N(C)C(=O)CC3)CC1 | -11% | 1.13 |
| O=C(Cn1c2c(c3ccccc31)CCC2)NCCn1ncccc1=O | 8% | -1 |
| O=C(Nc1ccc2c(c1)CCC2)c1ncccc1O | -2% | 0.21 |
| Cc1nocc1S(=O)(=O)N1CCC[C@H](n2ccnn2)CC1 | -11% | 2.11 |
| COc1cnc(C(=O)NCc2c(F)cccc2OC(F)F)nc1 | -9% | 1.19 |
| Cc1cccc(Cc2c(C)nc(CN(CC(C)C)C(=O)C3CCC3)[nH]c2=O)c1 | 0% | 0.02 |
| Cc1nc(Cn2cc(C(=O)N3CC(C)(C)CC(C)(C)C3)nn2)no1 | 2% | -0.38 |
| COc1ccccc1-c1nc(NCCc2ccccn2)nc2nn(Cc3ccccc3)c(N)c12 | 2% | -0.32 |
| Cc1cc(C)cc(CCNC(=O)NCc2nccn2C)c1 | 2% | -0.24 |
| O=C(Cc1cccnc1)N1CCC(OCCOc2ccccc2)CC1 | -16% | 2.52 |
| CCNC(=O)[C@H]1CCN(C(=O)Nc2ccccc2Oc2ccccc2OC)C1 | -12% | 1.53 |
| O=C(NCc1ccccn1)c1ccncc1F | -20% | 2.62 |
| CN(C)S(=O)(=O)Nc1c(F)cc(F)cc1Cl | -9% | 1.09 |
| CC(C)N(CC1CCC1)C(=O)Cn1cnc2ccccc2c1=O | -10% | 1 |

| Compound | % Inhibition | Z score |
| --- | --- | --- |
| O=C(N[C@H]1CCOC[C@@H]1OCc1ccccn1)c1cnc[nH]1 | -4% | 0.71 |
| CO[C@@H](C)CS(=O)(=O)Nc1sc(C)c(C)c1C#N | -6% | 0.8 |
| c1cc(-c2noc(-c3cccnc3)n2)cc(-c2ccn[nH]2)c1 | -16% | 2.05 |
| COc1ccc(NC(=O)CCNC(=O)C2OC3OC(C)(C)OC3C3OC(C)(C)OC23)cc1 (centres undefined) | -13% | 1.58 |
| COC(=O)c1ccc(C(=O)Oc2ccc(N(C)S(=O)(=O)c3ccccc3F)cc2)cc1 | -3% | 0.43 |
| Cc1nc2sccn2c1-c1noc(C[C@H]2CCC(F)(F)C2)n1 | -11% | 1.09 |
| CCOc1cc(C(=O)N(C)c2ccccc2)ncn1 | -4% | 0.69 |
| Cc1cnccc1NC(=O)NC1CCCCC1CO (centres undefined) | 4% | -0.35 |
| CCCOc1ccc(N2C[C@@H](C(=O)Nc3ccccc3C(=O)NCc3ccco3)CC2=O)cc1 | -17% | 2.14 |
| C[C@H](NCc1ccc(-c2ccc(C(F)(F)F)cc2)o1)c1ccc(NS(C)(=O)=O)cc1 | -5% | 0.76 |
| CCc1ccc2ncn(C[C@H]3CCCOC3)c(=O)c2c1 | -7% | 1.08 |
| Cc1n[nH]c(C)c1[C@@H](C)CC(=O)N1CCCO1 | -5% | 0.72 |
| CC(C)c1noc(-c2ccn3c(CC(=O)N4CCOCC4)nnc3c2)n1 | -1% | 0.17 |
| COCCc1nncn1C1CCN(C(=O)c2cccc(Br)c2)CC1 | -4% | 0.67 |
| COCCCN/C(=N\c1cccc(C(=O)O)c1)N1CCN(c2ccccc2F)CC1 | -18% | 1.62 |
| Cc1nc(CC(=O)Nc2ccc3nc(C)sc3c2)cs1 | -4% | 0.56 |
| O=C1Nc2ccccc2C[C@H]1c1ccccc1 | -5% | 0.73 |
| COC[C@]1(S(=O)(=O)NCc2cn(C3CCC3)nn2)C[C@@H]1C | 0% | 0.02 |
| CCCC[C@@H](C(=O)Nc1cc(C)on1)N1CCNC(=O)C1 | 12% | -1.53 |
| CNC(=O)CN(C)S(=O)(=O)c1ccc(C)c(F)c1 | -6% | 0.57 |
| CC(C)Cc1cc(C(=O)OCC(F)F)[nH]n1 | 5% | -0.62 |
| CN(C)S(=O)(=O)c1ccc(-c2[nH]ncc2C(=O)N2CCCC2)o1 | -6% | 0.68 |

| Compound | % Inhibition | Z score |
| --- | --- | --- |
| CCn1cc(CC(=O)N2CCN[C@H](c3ccc(OC)cc3)C2)nn1 | -10% | 1.71 |
| Cc1noc(C)c1CN1C(=O)[C@@H]2CC[C@H]1CN(Cc1noc(C3CC3)n1)C2 | 5% | -1 |
| C[C@](O)(CNC(=O)C1CCC1)c1cc2ccccc2s1 | -9% | 1.17 |
| CC1CCCC(C)N1C(=O)CN(C)CCO (centres undefined) | -6% | 0.8 |
| CC[C@]1(c2ccc(C)cc2)CC(=O)N(Cc2nnc(C)n2C)C1=O | -6% | 0.62 |
| CC(C)=CCCC(C)NC1CCc2[nH]ncc2C1 (centres undefined) | 12% | -1.61 |
| Cc1nc(CS(=O)(=O)NCCc2cnoc2)cs1 | -20% | 1.98 |
| O=C(Nc1nc(C2CC2)no1)C1CCCCC1 | 6% | -0.81 |
| O=C(COc1c(F)cc(F)cc1Br)NCC(F)(F)F | -12% | 1.07 |
| CC(C)(C)CC(NC(=O)N1CCOCC1c1nc[nH]n1)C(F)(F)F (centres undefined) | -4% | 0.86 |
| C[C@]1(C(=O)N2CCOc3cccc(F)c3C2)CCC(=O)NC1 | -10% | 1.43 |
| Cc1ccc(-c2nc(CCCN3CCCCC3=O)n(-c3ccccn3)n2)o1 | -13% | 1.75 |
| O=C(COCC1CC1)Nc1nc(CN2CCCCCC2)cs1 | -2% | 0.34 |
| Cc1ccc(S(=O)(=O)N2CCN(C(=O)c3cc(C4CC4)nc4c3c(C)nn4C(C)C)CC2)cc1 | 30% | 0.07 |
| COc1ccc(-c2csc(C)n2)cc1CC(=O)N(C)[C@H]1CCS(=O)(=O)C1 | -7% | 1.23 |
| COC(=O)c1ccc(N2CCN(C(=O)Cc3sc(C)nc3C)CC2)cc1 | -1% | 0.13 |
| COCCO[C@H]1CN(C2CCN(C(=O)c3cc(C)n(C)n3)CC2)C12CCCCC2 | -10% | 1.89 |
| COc1cc2nc(NC(=O)c3cccn3C)[nH]c2cc1OC | -5% | 0.6 |
| CC[C@@H](C(=O)Nc1ccc(C)cc1)N1CCC(c2ccn(C)n2)CC1 | 0% | 0.04 |
| O=C(Nc1cccc(Cl)c1)NC1CC2CCC1C2 (centres undefined) | -15% | 1.71 |
| CO[C@H]1C[C@H](C(=O)N2CCCC2(C)C)N(S(C)(=O)=O)C1 | -12% | 1.9 |
| CC(C)C12OC3C(O)C4CC3C1C4C(=O)N2c1ccc(Br)cc1 (centres undefined) | -9% | 1.53 |

| Compound | % Inhibition | Z score |
| --- | --- | --- |
| CC(=O)c1ccc(Nc2cc(C(=O)N3CCCC3)nc3ccc(C)cc23)cc1 | -2% | 0.21 |
| Cc1cc(C)n(CCCNc2cc3nncn3c(N)n2)n1 | 1% | -0.13 |
| Cn1cncc1-c1nnc([C@H]2CCN(C(=O)c3ccccc3)C2)o1 | -14% | 2.58 |
| O=C(c1cccc(C2OCCO2)c1)N(CCC(F)(F)F)C1CCC1 | -3% | 0.41 |
| CC1CCC(NC(=O)NCC(CO)Cc2ccccn2)C(C)C1 (centres undefined) | -13% | 1.54 |
| Cc1ccccc1CN(C(=O)C1CCCC1)c1ccc(CC(=O)NCC(C)C)cc1 | 0% | 0.02 |
| CN(C)S(=O)(=O)CCN1CCC(c2nc3c(s2)CCCC3)CC1 | -8% | 1.52 |
| CC(C)CC1CC(NC(=O)CO)CCO1 (centres undefined) | -2% | 0.45 |
| COc1ccc(-c2noc(NCCc3c[nH]c4ccccc34)n2)cc1OC | -1% | 0.23 |
| COC(C)(C)CCC[C@H](C)CCNCC(C)(C)N1CCOCC1 | 1% | -0.18 |
| OC[C@H](NC1CCC2(CC1)CC2(F)F)c1ccc(F)cc1 (some centres undefined) | -6% | 0.96 |
| COCc1ccc(C(=O)N[C@@H]2COCC[C@@H]2OCc2c(C)noc2C)o1 | -7% | 1.12 |
| Cc1cccc(N(Cc2ccc(C(=O)N3CCOCC3)o2)c2nc(-c3ccc(Cl)cc3)cs2)c1 | -6% | 0.89 |
| Cc1cccc(-c2ncc(C(=O)N3CCCCCCC3)c(O)n2)c1 | 0% | -0.06 |
| Cc1c(CC(=O)N[C@H]2CCNC2)c2c(n1Cc1ccccc1F)CCCC2=O | -8% | 1.67 |
| Brc1ccc2c(c1)NCCCC2 | -6% | 0.91 |
| Nc1c(C(=O)Nc2ccc3c(c2)OCO3)sc2ncccc12 | -13% | 1.32 |
| Cn1nc2c(c1C(=O)NC[C@](C)(O)c1cccc(F)c1)CS(=O)(=O)CC2 | -12% | 1.8 |
| Cc1ncc(CO)c2c1OC(C)(C)OC2 | 1% | -0.16 |
| NS(=O)(=O)c1ccc(CCNc2nc(C3CCCCC3)nc3ccccc23)cc1 | -41% | 4.79 |
| CCCNC(=O)CCc1c(-c2ccc(Cl)cc2)nc2ccc(-c3cccc(C)c3)cn12 | -26% | 2.57 |

Source: ChEMBL document CHEMBL4888484, “Replenishing the malaria drug discovery pipeline: Screening and hit evaluation of the MMV Hit Generation Library 1 (HGL1) against asexual blood stage Plasmodium falciparum ,using a nano luciferase reporter read-out” (2022)
